54 compounds from the supplement of paper PMC9334596 can be followed below.

Where “and” joins values, the source holds several entries; their conditions need not be identical. Identical values can stand only once. Over roughly 5,300 compounds, “PER2::LUC luminescence relative to vehicle control” has its median near 0.96; the highest 2% begin near 1.3. This is one part of the list.

The subject of this experiment is mPer2Luc MEF. The experiment is described as follows: PER2::LUC luminescence relative to vehicle control (fold of vehicle); higher = higher PER2::LUC reporter signal. The note with it: 10 µM. In outline:
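Mouse embryonic fibroblasts carrying the mPer2Luc reporter were seeded at ~3000 cells per well in 384-well plates, 48 h before compounds from commercial libraries were added at 10 μM. Cells were grown in DMEM with 10% FBS at 37 °C and 5% CO2. Luminescence was read with the ONE-Glo luciferase assay system 24 h and 30 h after treatment, followed by an alamarBlue viability assay. The value is PER2::LUC luminescence as fold of vehicle control.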

`Cc1oc(=O)oc1COC(=O)C1=C([C@H]2CCCO2)S[C@@H]2[C@@H]([C@@H](C)O)C(=O)N12`: the “PER2::LUC luminescence” value turned out to be 1.04 (time after treatment 24 h) and 1 (time after treatment 30 h).

For `Oc1c(Cl)cc(Cl)c(Cl)c1Cc1c(O)c(Cl)cc(Cl)c1Cl`, the “PER2::LUC luminescence” value was 0.616 (time after treatment 24 h) and 0.54 (time after treatment 30 h).

`Cc1c(N(C)C)c(=O)n(-c2ccccc2)n1C`: the “PER2::LUC luminescence” value (time after treatment 24 h) was 0.972 and 0.983; the “PER2::LUC luminescence” value (time after treatment 30 h) is 0.968 and 0.942.

For `CCN(CC)CCNC(=O)c1c(C)[nH]c(/C=C2\C(=O)Nc3ccc(F)cc32)c1C`, the “PER2::LUC luminescence” value came out at 0.363 (time after treatment 24 h) and 0.37 (time after treatment 30 h).

In the case of `COc1ccc(/C=C/C(=O)Nc2ccccc2C(=O)O)cc1OC`, the “PER2::LUC luminescence” value (time after treatment 24 h) is 0.844 and 0.327.

Consider `OCC(O)COc1cccc2ccccc12` (configuration not stated), for which the “PER2::LUC luminescence” value runs as follows: (time after treatment 24 h) 0.928; (time after treatment 30 h) 1.04.

With `CCOC(=O)C1=C(COCCN)NC(C)=C(C(=O)OC)C1c1ccccc1Cl` (configuration not stated), the “PER2::LUC luminescence” value is, setting by setting: (time after treatment 24 h) 0.874 and 0.677 and 0.45; (time after treatment 30 h) 0.758 and 0.718 and 0.556.

On to `CC(=O)N1CCCC1C(=O)O` (configuration not stated), for which the “PER2::LUC luminescence” value was found to be 1.03 (time after treatment 24 h) and 1.02 (time after treatment 30 h).

With `N#Cc1cnc2c(Cl)cc(NCc3cn(CCN4CCCCCC4)nn3)cc2c1Nc1ccc(F)c(Cl)c1`, the “PER2::LUC luminescence” value runs as follows: (time after treatment 24 h) 0.736; (time after treatment 30 h) 0.783.

On to `Oc1ccc(/C=C/c2cc(O)cc(O)c2)cc1`, for which the “PER2::LUC luminescence” value is, setting by setting: (time after treatment 24 h) 1.46; (time after treatment 30 h) 1.29.

`CC[C@H](C)[C@H](NC(=O)[C@H](Cc1ccc(O)cc1)NC(=O)[C@@H](NC(=O)[C@H](CCCNC(=N)N)NC(=O)[C@@H](N)CC(=O)O)C(C)C)C(=O)N[C@@H](Cc1cnc[nH]1)C(=O)N1CCC[C@H]1C(=O)N[C@@H](Cc1ccccc1)C(=O)O`: the “PER2::LUC luminescence” value amounted to 0.985 (time after treatment 24 h) and 0.95 (time after treatment 30 h).

In the case of `O=C1NC(=NCc2cccs2)S/C1=C\c1ccc2ncccc2c1`, the “PER2::LUC luminescence” value is, setting by setting: (time after treatment 24 h) 0.921; (time after treatment 30 h) 0.904.

In the case of `COc1ccccc1N1CCN(CCN2C(=O)c3ccccc3C(C)(C)C2=O)CC1`, the “PER2::LUC luminescence” value (time after treatment 24 h) came to 0.982 and the “PER2::LUC luminescence” value (time after treatment 30 h) turned out to be 0.92.

As for `Nc1nc2[nH]cnc2c(=S)[nH]1`, the “PER2::LUC luminescence” value reads like this: (time after treatment 24 h) 0.514; (time after treatment 30 h) 0.604.

Take `CC(=O)C1C(=O)C=C(C)OC1=O` (configuration not stated): the “PER2::LUC luminescence” value by setting is: (time after treatment 24 h) 0.798; (time after treatment 30 h) 1.04.

For `Cc1[nH]c(/C=C2\C(=O)Nc3ccc(F)cc32)c(C)c1C(=O)NC[C@H](O)CN1CCOCC1`, the “PER2::LUC luminescence” value was found to be 0.666 (time after treatment 24 h) and 0.715 (time after treatment 30 h).

As to `CC[N+](CC)(CC)CCOc1ccc(/C=C/c2ccccc2)cc1`, the “PER2::LUC luminescence” value (time after treatment 24 h) stood at 0.833 and the “PER2::LUC luminescence” value (time after treatment 30 h) is 0.89.

`Cc1ccccc1C(=O)Nc1ccc(C(=O)N2CCCC(O)c3cc(Cl)ccc32)c(C)c1` (configuration not stated): the “PER2::LUC luminescence” value by setting is: (time after treatment 24 h) 1.15 and 1; (time after treatment 30 h) 1.23 and 0.776.

As to `CC(Oc1ccc(Oc2cnc3ccc(Cl)cc3n2)cc1)C(=O)O` (configuration not stated), the “PER2::LUC luminescence” value came to 1.14 (time after treatment 24 h) and 1.05 (time after treatment 30 h).

For the compound `CC1=CC(=O)C(C(C)C)=C/C1=N/OC(=O)c1ccccc1C`, the “PER2::LUC luminescence” value (time after treatment 24 h) turned out to be 1.11 and the “PER2::LUC luminescence” value (time after treatment 30 h) is 0.994.

Turning to `CN(C)C(=O)C(CCN1CCC(O)(c2ccc(Cl)cc2)CC1)(c1ccccc1)c1ccccc1`, the “PER2::LUC luminescence” value by setting is: (time after treatment 24 h) 0.489; (time after treatment 30 h) 0.694.

`COc1cc(C[C@@H](CO)[C@H](CO)Cc2ccc(O)c(OC)c2)ccc1O`: the “PER2::LUC luminescence” value runs as follows: (time after treatment 24 h) 0.941; (time after treatment 30 h) 0.955.

On to `CC(C)c1cc2c(cc1S(=O)(=O)O)[C@@]1(C)CCC[C@@](C)(C(=O)O)[C@@H]1CC2`, for which the “PER2::LUC luminescence” value runs as follows: (time after treatment 24 h) 1.03; (time after treatment 30 h) 1.

Regarding `C=CCc1cccc(/C=N/NC(=O)CN2CCN(Cc3ccccc3)CC2)c1O`, the “PER2::LUC luminescence” value runs as follows: (time after treatment 24 h) 0.453; (time after treatment 30 h) 0.464.

Regarding `Cc1cccc(C)c1NC(=O)C(C)N` (configuration not stated), the “PER2::LUC luminescence” value by setting is: (time after treatment 24 h) 0.995 and 0.922; (time after treatment 30 h) 1.03 and 0.962.

For `O=C(O)C1CCCNC1` (configuration not stated), the “PER2::LUC luminescence” value is, setting by setting: (time after treatment 24 h) 1.07; (time after treatment 30 h) 1.

Turning to `CO/N=C(\C(=O)N[C@@H]1C(=O)N2C(C(=O)O)=C(CSc3nnnn3C)CS[C@H]12)c1csc(N)n1`, the “PER2::LUC luminescence” value worked out at 1.14 (time after treatment 24 h) and 1.25 (time after treatment 30 h).

On to `CC(C(=O)O)c1ccc2c(c1)[nH]c1ccc(Cl)cc12` (configuration not stated), for which the “PER2::LUC luminescence” value reads like this: (time after treatment 24 h) 1.05; (time after treatment 30 h) 1.01.

On to `O=C(Nc1cc(Oc2cc(F)c(NC(=O)C3(C(=O)Nc4ccc(F)cc4)CC3)cc2F)ccn1)C1CC1`, for which the “PER2::LUC luminescence” value (time after treatment 24 h) came to 0.722 and the “PER2::LUC luminescence” value (time after treatment 30 h) was 0.723.

In the case of `O=C(Nc1cccc(C(F)(F)F)c1)Nc1cc(S(=O)(=O)NC2CC2)ccc1-c1ccsc1`, the “PER2::LUC luminescence” value reads like this: (time after treatment 24 h) 0.889; (time after treatment 30 h) 0.805.

As for `O=C1c2c(O)cccc2C([C@@H]2O[C@H](CO)[C@@H](O)[C@H](O)[C@H]2O)c2cc(CO)cc(O)c21` (some centres not stated), the “PER2::LUC luminescence” value runs as follows: (time after treatment 24 h) 0.894; (time after treatment 30 h) 1.05.

For the compound `C[C@H]1O[C@@H](O[C@H]2[C@@H](O)C[C@H](O[C@H]3[C@@H](O)C[C@H](O[C@H]4CC[C@@]5(C)[C@H](CC[C@@H]6[C@@H]5C[C@@H](O)[C@]5(C)[C@@H](C7=CC(=O)OC7)CC[C@]65O)C4)O[C@@H]3C)O[C@@H]2C)C[C@H](O)[C@@H]1O`, the “PER2::LUC luminescence” value came out at 1.04 (time after treatment 24 h) and 0.884 (time after treatment 30 h).

In the case of `CN1CCN(C2=Nc3cc(F)ccc3Cc3ccccc32)CC1`, the “PER2::LUC luminescence” value is, setting by setting: (time after treatment 24 h) 0.906; (time after treatment 30 h) 0.883.

For `O=C(O)CCC/C=C\C/C=C\C/C=C\C/C=C\CCCCCO`, the “PER2::LUC luminescence” value is, setting by setting: (time after treatment 24 h) 0.987; (time after treatment 30 h) 0.936.

With `CN(C)CCN1C(=O)c2cccc3cc(NC(N)=O)cc(c23)C1=O`, the “PER2::LUC luminescence” value reads like this: (time after treatment 24 h) 0.999; (time after treatment 30 h) 0.806.

As to `NC(N)=NC(N)=Nc1cccc(Cl)c1`, the “PER2::LUC luminescence” value is 0.938 and 1.03 (time after treatment 24 h); 1.18 and 0.872 (time after treatment 30 h).

With `COc1cc([S+](C)[O-])ccc1-c1nc2cccnc2[nH]1` (configuration not stated), the “PER2::LUC luminescence” value is, setting by setting: (time after treatment 24 h) 1; (time after treatment 30 h) 0.947.

Regarding `CC(C)=CCC[C@@H](C)[C@H]1CC[C@@]2(C)C3=C(CC[C@]12C)[C@@]1(C)CC[C@H](O)C(C)(C)[C@@H]1CC3`, the “PER2::LUC luminescence” value (time after treatment 24 h) is 1.06 and the “PER2::LUC luminescence” value (time after treatment 30 h) is 0.995.

`CC(=O)OC1CCC2(C)C(=CCC3C2CCC2(C)C(C(C)CCCC(C)C)CCC32)C1` (configuration not stated): the “PER2::LUC luminescence” value was 1.04 (time after treatment 24 h) and 0.938 (time after treatment 30 h).

In the case of `C[C@H](CCC(=O)O)[C@H]1CC[C@H]2[C@@H]3[C@H](O)C[C@@H]4C[C@H](O)CC[C@]4(C)[C@H]3C[C@H](O)[C@]12C`, the “PER2::LUC luminescence” value runs as follows: (time after treatment 24 h) 0.994; (time after treatment 30 h) 0.981.

Take `O=c1ccc2cc(O)c(O)cc2o1`: the “PER2::LUC luminescence” value (time after treatment 24 h) was 0.867 and the “PER2::LUC luminescence” value (time after treatment 30 h) worked out at 0.732.

For the compound `OB1OCc2cc(F)ccc21`, the “PER2::LUC luminescence” value runs as follows: (time after treatment 24 h) 1.04; (time after treatment 30 h) 1.01.

With `Cc1c(OCC(F)(F)F)ccnc1C[S@@+]([O-])c1nc2ccccc2[nH]1`, the “PER2::LUC luminescence” value is, setting by setting: (time after treatment 24 h) 1.68 and 1.14; (time after treatment 30 h) 1.73 and 1.12.

Regarding `COc1cc2c(N3CCN(C(=O)Nc4ccc(OC(C)C)cc4)CC3)ncnc2cc1OCCCN1CCCCC1`, the “PER2::LUC luminescence” value reads like this: (time after treatment 24 h) 0.772; (time after treatment 30 h) 0.597.

As to `Cc1cc(O)c2c(c1)C(=O)c1cccc(O)c1C2=O`, the “PER2::LUC luminescence” value reads like this: (time after treatment 24 h) 0.954; (time after treatment 30 h) 0.968.

Turning to `NC(=O)c1cn(Cc2c(F)cccc2F)nn1`, the “PER2::LUC luminescence” value was determined as 1.07 (time after treatment 24 h) and 1.14 (time after treatment 30 h).

Take `COc1cc(N)c(Cl)cc1C(=O)OCCCN1CCCCC1`: the “PER2::LUC luminescence” value reads like this: (time after treatment 24 h) 0.953; (time after treatment 30 h) 0.845.

Regarding `CC(C(=O)O)c1ccc(-c2ccccc2)c(F)c1` (configuration not stated), the “PER2::LUC luminescence” value (time after treatment 24 h) worked out at 1.15 and the “PER2::LUC luminescence” value (time after treatment 30 h) was found to be 1.06.

For the compound `O=C(OCC(O)CO)c1ccccc1Nc1ccnc2cc(Cl)ccc12` (configuration not stated), the “PER2::LUC luminescence” value was found to be 0.955 (time after treatment 24 h) and 1.09 (time after treatment 30 h).

As to `CN(CCO)CC(O)Cn1cnc2c1c(=O)n(C)c(=O)n2C` (configuration not stated), the “PER2::LUC luminescence” value stood at 0.994 (time after treatment 24 h) and 1.06 (time after treatment 30 h).

For the compound `C#Cc1cccc(Nc2ncnc3cc(OCCOC)c(OCCOC)cc23)c1`, the “PER2::LUC luminescence” value (time after treatment 24 h) was 0.831 and 0.801; the “PER2::LUC luminescence” value (time after treatment 30 h) is 0.869 and 0.721.

For the compound `COc1ccc(Cn2ccc3ccc(C(=O)NO)cc32)cc1`, the “PER2::LUC luminescence” value was 0.933 (time after treatment 24 h) and 0.784 (time after treatment 30 h).

Regarding `Cc1onc(-c2ccccc2Cl)c1C(=O)N[C@@H]1C(=O)N2[C@@H]1SC(C)(C)[C@@H]2C(=O)O`, the “PER2::LUC luminescence” value was 0.905 and 0.888 (time after treatment 24 h); 1.04 and 0.952 (time after treatment 30 h).

For the compound `CC(C)Nc1cccnc1N1CCN(C(=O)c2cc3cc(NS(C)(=O)=O)ccc3[nH]2)CC1`, the “PER2::LUC luminescence” value (time after treatment 24 h) is 1.07 and the “PER2::LUC luminescence” value (time after treatment 30 h) was 0.996.
